According to PubChem BioAssay AID504333 (National Center for Advancing Translational Sciences (NCATS), 2011):
About 16,000 (4.4%) of roughly 360,000 compounds were called active. The inconclusive results got no clear call from the source; some entries with a clear call stand among them for comparison. The call rests on the fitted dose curve; in most records, active means well fitted inhibition curve with a large enough effect; inconclusive means small, poorly fitted or top-dose-only effect; inactive means no such curve, though single readings can be large or run the other way. Where the call is inconclusive, the potency comes from a doubtful curve fit.

molecular target: Bromodomain adjacent to zinc finger domain protein 2B (Homo sapiens) (UniProt Q9UIF8); assay: qHTS Assay for Inhibitors of BAZ2B; conditions: AlphaScreen BAZ2B-H3K14Ac peptide displacement; series mostly up to 114 µM; further: nearly all actives have a fitted effect of over 60% in size
Chain of UniProt Q9UIF8 (Q9UIF8 whole entry, looked up, the tested form may be a part): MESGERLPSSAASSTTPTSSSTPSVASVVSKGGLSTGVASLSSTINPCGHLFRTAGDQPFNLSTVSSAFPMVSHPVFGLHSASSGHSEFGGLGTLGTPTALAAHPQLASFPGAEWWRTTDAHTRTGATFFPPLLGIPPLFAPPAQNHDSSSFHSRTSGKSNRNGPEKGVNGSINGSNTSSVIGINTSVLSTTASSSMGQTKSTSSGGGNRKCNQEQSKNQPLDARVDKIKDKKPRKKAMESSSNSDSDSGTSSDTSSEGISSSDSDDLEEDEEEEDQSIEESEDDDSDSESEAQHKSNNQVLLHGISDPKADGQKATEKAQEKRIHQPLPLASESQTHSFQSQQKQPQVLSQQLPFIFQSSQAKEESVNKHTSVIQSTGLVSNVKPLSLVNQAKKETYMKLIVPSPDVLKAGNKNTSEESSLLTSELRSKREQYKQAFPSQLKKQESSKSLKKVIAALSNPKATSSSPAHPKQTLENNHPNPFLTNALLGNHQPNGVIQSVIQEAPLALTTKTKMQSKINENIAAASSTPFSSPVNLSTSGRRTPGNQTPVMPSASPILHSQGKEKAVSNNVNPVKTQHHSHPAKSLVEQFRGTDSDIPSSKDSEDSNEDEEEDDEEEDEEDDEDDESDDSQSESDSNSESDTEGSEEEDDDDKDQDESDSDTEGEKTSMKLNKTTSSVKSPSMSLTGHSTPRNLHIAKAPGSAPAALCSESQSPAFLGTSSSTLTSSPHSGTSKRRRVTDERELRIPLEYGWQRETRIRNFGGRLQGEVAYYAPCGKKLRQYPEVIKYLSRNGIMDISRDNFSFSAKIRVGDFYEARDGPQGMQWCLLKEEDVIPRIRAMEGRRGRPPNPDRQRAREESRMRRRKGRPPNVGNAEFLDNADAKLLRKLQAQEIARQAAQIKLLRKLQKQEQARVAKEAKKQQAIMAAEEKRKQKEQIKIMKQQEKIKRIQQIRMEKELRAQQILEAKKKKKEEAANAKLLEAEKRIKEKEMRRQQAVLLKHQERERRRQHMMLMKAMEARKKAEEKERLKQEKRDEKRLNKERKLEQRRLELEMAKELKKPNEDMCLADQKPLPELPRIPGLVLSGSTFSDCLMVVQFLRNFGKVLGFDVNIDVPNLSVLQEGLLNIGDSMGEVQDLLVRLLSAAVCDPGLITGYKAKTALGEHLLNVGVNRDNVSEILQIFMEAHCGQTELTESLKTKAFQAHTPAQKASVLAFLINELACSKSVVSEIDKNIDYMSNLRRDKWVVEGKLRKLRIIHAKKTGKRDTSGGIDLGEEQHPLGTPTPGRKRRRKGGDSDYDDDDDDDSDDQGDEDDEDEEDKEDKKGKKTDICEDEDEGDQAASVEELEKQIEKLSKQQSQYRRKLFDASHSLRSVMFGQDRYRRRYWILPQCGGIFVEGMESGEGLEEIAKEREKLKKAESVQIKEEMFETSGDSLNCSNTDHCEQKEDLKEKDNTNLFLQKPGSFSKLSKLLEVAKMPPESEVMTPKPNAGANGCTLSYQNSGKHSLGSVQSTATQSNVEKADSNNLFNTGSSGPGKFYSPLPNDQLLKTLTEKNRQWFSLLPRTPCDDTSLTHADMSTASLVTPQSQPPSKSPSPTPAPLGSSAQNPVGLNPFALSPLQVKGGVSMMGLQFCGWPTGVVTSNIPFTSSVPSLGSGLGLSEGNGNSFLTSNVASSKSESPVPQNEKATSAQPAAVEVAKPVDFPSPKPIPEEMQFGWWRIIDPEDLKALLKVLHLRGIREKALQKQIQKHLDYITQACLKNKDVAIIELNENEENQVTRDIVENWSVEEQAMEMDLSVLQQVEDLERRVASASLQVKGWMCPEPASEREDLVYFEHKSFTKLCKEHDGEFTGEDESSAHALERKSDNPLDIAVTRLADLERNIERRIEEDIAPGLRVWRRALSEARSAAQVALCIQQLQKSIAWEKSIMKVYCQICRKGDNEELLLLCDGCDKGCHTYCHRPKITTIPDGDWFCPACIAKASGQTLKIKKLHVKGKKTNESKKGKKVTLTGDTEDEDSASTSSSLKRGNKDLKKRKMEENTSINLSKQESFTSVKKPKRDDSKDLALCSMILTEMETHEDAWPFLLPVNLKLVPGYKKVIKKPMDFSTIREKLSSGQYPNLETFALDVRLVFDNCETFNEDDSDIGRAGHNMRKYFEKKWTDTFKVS
In short: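 Multi-concentration screen (max 110 uM) measuring displacement of acetylated histone H3 peptide from BAZ2B by AlphaScreen, using 50 nM protein, 50 nM peptide and 10 ug/mL streptavidin donor plus Ni-chelate acceptor beads.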
Potency means the concentration at half of the fitted maximal effect; tags describe the fitted curve by direction and shape.

| Compound | Potency |
| --- | --- |
| COc1ccc(C2CC(=O)N(CCCN(C)CCc3ccc(OC)c(OC)c3)C2)cc1 (stereo not drawn) | active: 89.1 µM |
| O=C(NNC(=O)c1csc(-c2cccnc2)n1)Nc1ccc(Cl)cc1 | inconclusive: 79.4 µM [inhibitor, single point] |
| Cc1cc(/C=N/Nc2ncnc(N)c2[N+](=O)[O-])c(C)n1-c1ccccc1 | inconclusive: 89.1 µM [inhibitor, single point] |
| CCNC(=O)/C(C#N)=C/c1c(N2CCN(c3ccc(OC)cc3)CC2)nc2c(C)cccn2c1=O | active: 35.5 µM |
| O=C(NCCC(c1ccccc1)c1ccco1)c1cccs1 (stereo not drawn) | inconclusive: 89.1 µM [inhibitor, partial curve, poor fit] |
| COc1cc(CN2CCCC(N3CCN(c4ccccc4C)CC3)C2)ccc1O (stereo not drawn) | inactive |
| CCOc1ccc(Br)cc1C1C(C(=O)OC)=C(N)Oc2cc(N(C)C)ccc21 (stereo not drawn) | inconclusive: 39.8 µM [inhibitor, partial curve] |
| Cc1nc2ccccc2c2nc3ccccc3n12 | inconclusive: 3.98 µM [inhibitor, single point] |
| c1ccc(-c2csc(Nc3cccnc3)n2)nc1 | inconclusive: 89.1 µM [inhibitor, single point] |
| O=C1c2ccccc2NC(c2ccco2)N1/N=C/c1ccco1 (stereo not drawn) | inconclusive: 56.2 µM [inhibitor, partial curve] |
| O=C(C1CCN(CCCc2ccccc2)CC1)N(CCc1ccccc1)Cc1ccccc1 | inconclusive: 89.1 µM [inhibitor, single point] |
| c1ccc(-c2ccc3c(c2)NCCN3)cc1 | active: 56.2 µM |
| CC1CCN(C(=S)c2ccc([N+](=O)[O-])cc2)CC1 | inconclusive: 44.7 µM [inhibitor, partial curve] |
| COc1ccccc1Nc1nc(N)nc(CN2CC(C)CC(C)C2)n1 (stereo not drawn) | inconclusive: 39.8 µM [inhibitor, partial curve] |
| CCN1C(=O)[C@H]2[C@@H](c3ccc(Cl)cc3)N3C(=O)CN(CCOC)C(=O)[C@@]3(Cc3ccccc3)[C@H]2C1=O | inactive |
| Cc1c(Cl)cccc1NC(=O)CCN1C(=O)c2ccccc2Sc2ncccc21 | inactive |
| CC(C)n1c(CSCc2ccc(Cl)cc2Cl)n[nH]c1=S | inconclusive: 44.7 µM [inhibitor, partial curve] |
| CCC(Sc1nc2ccccc2c2nc(-c3ccccc3)nn12)C(=O)Nc1cccc(OC)c1 (stereo not drawn) | inactive |
| CN(C)C(CN1C(=O)C2CC=CCC2C1=O)c1cn(C)c2ccccc12 (stereo not drawn) | inconclusive: 79.4 µM [inhibitor, single point] |
| C=CCN1C(=O)/C(=C\c2cccs2)C(C(=O)OC)=C1C | active: 39.8 µM |
| CC(Sc1nc(NCc2ccccc2)nc(N(C)C)n1)C(=O)Nc1ccccc1 (stereo not drawn) | inactive |
| CC(=O)Oc1cc2oc(=O)cc(C)c2cc1OC(C)=O | active: 50.1 µM |
| O=C(Nc1cccnc1)c1cc(-c2ccc(Cl)c(Cl)c2)on1 | inactive |
| O=C1C2=C(NC(=S)NC2c2ccc(Cl)cc2)NC(c2ccc(Cl)cc2)N1c1ccc(Cl)cc1 (stereo not drawn) | inconclusive: 20 µM [inhibitor, partial curve] |

| Compound | Potency |
| --- | --- |
| Cc1ccc(S(=O)(=O)Nc2cccc(-c3ccc(N4CCCCCC4)nn3)c2)cc1 | inactive |
| Cc1nc(SCC(=O)Nc2ccccc2F)[nH]c(=O)c1Cc1ccccc1 | inactive |
| COc1ccc(NC(=O)c2cnc[nH]2)cc1 | inactive |
| S=C(Nc1cccc(Cl)c1)Nc1ccc2cn[nH]c2c1 | inconclusive: 89.1 µM [inhibitor, single point] |
| CCCCN=C1NN=C(c2cccc([N+](=O)[O-])c2)CS1 | inconclusive: 70.8 µM [inhibitor, partial curve] |
| COc1ccc(/C=N/n2c(-c3ccccc3)n[nH]c2=S)cc1 | inconclusive: 89.1 µM [inhibitor, single point] |
| COCCNc1nc(-c2cc3ccccc3o2)cs1 | inconclusive: 50.1 µM [inhibitor, partial curve] |
| Cc1ccc(C)c(NC(=S)NCc2cccn2C)c1 | inconclusive: 89.1 µM [inhibitor, single point] |
| CCc1c(C)sc(NC(=O)Cn2nc(C)c([N+](=O)[O-])c2C)c1C(N)=O | inactive |
| COc1ccc(CCNC(=O)c2ccc3c(c2)N(Cc2ccc(F)cc2)CCS3)cc1OC | inactive |
| Cc1nc(-c2ccc(S(=O)(=O)Nc3ccc(C)c(N(C)C)c3)cc2)co1 | inconclusive: 31.6 µM [inhibitor, partial curve] |
| N#Cc1cccc(NC(=O)c2cc3c(s2)-c2ccc(Cl)cc2SC3)c1 | inactive |
| COc1ccccc1N1CCN(C(=O)c2cc(-c3ccccc3O)on2)CC1 | inactive |
| O=[N+]([O-])c1cc(Cl)ccc1Sc1cccc2cccnc12 | inconclusive: 39.8 µM [inhibitor, single point] |
| COc1cc(C(=O)N2CCN(Cc3ccc4c(c3)OCO4)CC2)cc(OC)c1OC | active: 79.4 µM |
| Cc1cccc(OCC(=O)Nc2ccc3c(c2)nc(CCN2CCN(c4ccccn4)CC2)n3C)c1 | inconclusive: 25.1 µM [inhibitor, partial curve] |
| C=CCc1ccc(OCCCCNC2CCCC2)c(OC)c1 | active: 56.2 µM |
| COCc1ccc(C(=O)N2CCCC(N3CCN(c4ccc(F)cc4)CC3)C2)o1 (stereo not drawn) | inactive |
| CCOc1ccccc1CNC(=O)c1cccn1-c1nnc(N2CCCCC2)s1 | inactive |
| Cc1ccc(NC(=O)CN(CCc2ccccc2)S(C)(=O)=O)cc1 | inactive |
| O=C(NC1=NCCS1)C1Cc2ccccc2CN1C(=O)c1ccccc1 (stereo not drawn) | inconclusive: 89.1 µM [inhibitor, single point] |
| O=C(Cn1c(=O)c2cccn2c2ccc(F)cc21)N1CCN(c2ccc(F)cc2)CC1 | inconclusive: 89.1 µM [inhibitor, single point] |
| CCOc1ccc(N(C)C(CNS(=O)(=O)c2ccccc2)c2ccccc2)cc1 (stereo not drawn) | active: 11.2 µM |
| Cc1nnc(SCc2ccc([N+](=O)[O-])cc2)o1 | inconclusive: 89.1 µM [inhibitor, single point] |
